± gives the standard deviation of the averaged measurements. Some of the results follow.
test system: PfAP2-G AP2 domain (GST-tagged); experiment: gcPBM binding intensity (ln(normalized median fluorescence intensity)); higher = stronger DNA binding
Outline: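 Binding of GST-tagged P. falciparum DNA-binding domains, expressed in E. coli and used at about 25 μg on average, was carried out for 1 h in 1× PBS containing 1% milk, 0.2 mg/ml BSA, 0.5% salmon testes DNA and 0.03% Triton X-100. The target was an Agilent 4 × 180k array of primer-extended double-stranded 36-bp intergenic genomic probes plus negative controls, read with Alexa488 anti-GST antibody at 488 nm. Binding intensity is the highest Masliner-normalised natural-log median intensity across replicate spots of either probe orientation.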

Row | Sequence | gcPBM binding intensity (ln)
1 | CCATAAGATATATGTAGTACATATTATATATATATA [XGTACX_site2104] | 11.6 ± 0.95
2 | TATACACATATATAAACACACAAAAAAAAAAAAAAA [CACACA_site7041] | 9.78 ± 0.53
3 | AATATATAGCTAAAAACACACAAATATATACGCATA [CACACA_site3608] | 9.88 ± 0.23
4 | CATTATGTCGTAAATACACACATACCTATACATACA [CACACA_site6763] | 10.3 ± 0.21
5 | TTTATATGATATATTACACACAAAAAAAAAAAAAAA [CACACA_site3549] | 9.67 ± 0.52
6 | CTCTTCTATATATAAGCATGCATTCATAATAATTTA [TGCATGCA_site679] | 9.8 ± 0.071
7 | TAGATACTTGTCATGGGTACATATCGTACCTTTTGG [XGTACX_site6781] | 11.3 ± 0.8
8 | ATTTATATATATATAGGTACACATATTTATATATAA [XGTACX_site8487] | 11.3 ± 1.1
9 | AAACCAAGGCACAATAATTAAATAAATAAAATCATG [GTGCAC_negctrl_site574] | 9.93 ± 0.16
10 | TCATTCATATGTTACACACACACACCCACATAAAAA [CACACA_site3245] | 10.4 ± 0.42
11 | CATAATTATGCAATTGCACACAACTATCATTTTTTT [CACACA_site2997] | 10.16 ± 0.042
12 | AAGAGTTAAAAAAATACACACATATATATTTTTTTA [CACACA_site1980] | 9.85 ± 0.042
13 | TATATATAAAAAACATGTACACAAATTTACATACAT [XGTACX_site4777] | 11.4 ± 0.86
14 | TCACTAAACCATTAGAGTACTTGACATATAATGAGC [XGTACX_site3272] | 11 ± 0.52
15 | GATTATATATGAAAATGTACAAATATATATATATAT [XGTACX_site5963] | 10.8 ± 0.28
16 | AAAAAAAAAAAAAAAAAAAAAAAAAAATACATATGT [XGTACX_negctrl_site95] | 11.1 ± 0.69
17 | TTTTTGTATGCTTCCCGACTACATTATGCCATAAAT [CACACA_negctrl_site136] | 10.2 ± 0.15
18 | AAGGTGGGAAAAAATAGTACACAACAAAAATGTATG [XGTACX_site8741] | 11.7 ± 1
19 | TACATTCTAAATATTACACACTTTATAAAATAATAA [CACACA_site4069] | 9.96 ± 0.35
20 | ATATATATAAATATATGTACTAATATATACATATAT [XGTACX_site2289] | 11 ± 0.69
21 | AGAAAAGAGAAATGGGCACACACACCCATATTATAT [CACACA_site8433] | 10.5 ± 0.41
22 | ATATATCTATATGTGTGTACATATAAGTATTTATAT [XGTACX_site5333] | 11.3 ± 0.86
23 | ACATATAAACTGTATACACACAAATATTGCATATAT [CACACA_site6804] | 10.09 ± 0.021

Row | Sequence | gcPBM binding intensity (ln)
24 | CAAAATATTTAAAAAAGTACTTAAAATAAATTCAAA [XGTACX_site6866] | 11.4 ± 0.88
25 | ATATTTAAATATATTTATATATATAAAAAAAAATAT [GTGCAC_negctrl_site312] | 9.82 ± 0.13
26 | CCCATGTAATATTAAACACACACTCATATAACACAA [CACACA_site7906] | 10.1 ± 0.23
27 | ATATTATATCTAATCGTGCACAACTGTACATTTGTC | 11.1 ± 0.81
28 | TTGTATCATATATTATGTACATATTTATTTATTATC [XGTACX_site7723] | 11.4 ± 0.54
29 | AAAAAAATAAAAAATATATAAATAATTAATACATGT [GTGCAC_negctrl_site633] | 9.57 ± 0.25
30 | CACACAACTATCAAGGTGCTAAAATGAAATAATATA [GTGCAC_site9871] | 9.87 ± 0.071
31 | AATATAAATAAAAACACACACACACGGATATTTATA [CACACA_site7134] | 10.2 ± 0.14
32 | ATTATACTTTCCATTCGTACATATATAAATAAATAA [XGTACX_site6245] | 11 ± 0.61
33 | ATATATAGATGTGAATTATTTATATTATCTATTCTT [CACACA_negctrl_site518] | 9.4 ± 0.23
34 | AATATGTTTTACGTCTCACACATATAGGTTTATATT [CACACA_site4713] | 10.09 ± 0.049
35 | CATAAATACAAATATACACACATATTTATATTTATA [CACACA_site7277] | 9.865 ± 0.035
36 | AAAAAGAACACAAAAAGTACAAAAATTATAATGATA [XGTACX_site2676] | 11.1 ± 0.71
37 | AAACTTCAAAAAGAGCACTTGAATTTTTTTTTTTTT [TGCATGCA_negctrl_site133] | 9.68 ± 0.042
38 | ATAAGTATTACTAGTACACACAAGTTGTTAATCCTT [CACACA_site3324] | 11.3 ± 0.77
39 | TATATTATATAATTTTAACACACAAGAATATAAACT [CACACA_site8378] | 10.2 ± 0.23
40 | AACAATAAATTATTATGTACACATATATTATATATA [XGTACX_site4629] | 11.5 ± 0.98
41 | ATATTTTAAAATAATACACACAAAATGATTCTTAAT [CACACA_site2930] | 10.2 ± 0.15
42 | TATTTAAAATAATAACAAAATTAACATAAATATATA [GTGCAC_negctrl_site472] | 9.635 ± 0.092
43 | TTTTTCCTTATTAATACACACATTCACCTTTTAAAT [CACACA_site479] | 10.3 ± 0.17
44 | AGTTGCATACATTGAAGTACAGAACATTTATATATA [XGTACX_site240] | 11.3 ± 0.89
45 | TTAAATTCGTCATTTTAAAATAATACAAAAGTTCAA [CACACA_negctrl_site19] | 9.88 ± 0.12
46 | ATATAATCTGAGTGCACACAAATAAATAAACATACA [CACACA_site422] | 10.5 ± 0.34

Row | Sequence | gcPBM binding intensity (ln)
47 | TTTTTTTTGTATTTTTCACACACACCGAAGTAAACA [CACACA_site8575] | 10.4 ± 0.51
48 | TAAAAGGATGCATATACACACATATAGATTTATATA [CACACA_site7336] | 9.915 ± 0.035
49 | TTACGATTTAAAATGGGTACATATATATGAAAAAAA [XGTACX_site545] | 11.3 ± 0.86
50 | CTTATGTGCATACCTACACACTTACCTATATTTATA [CACACA_site7411] | 10.08 ± 0.014
51 | ATTTATAAAATATAATTACATTTTTAAATAATAAAA [GTGCAC_negctrl_site43] | 9.63 ± 0.099
52 | AAAAAAAAAACATACACACACATATAGATTTATATG [CACACA_site6847] | 9.96 ± 0.028
53 | TACACAAAGTTACATACACACTAATATTTACACCAT [CACACA_site6602] | 10.1 ± 0.071
54 | TAAAGAAAAATATAAAGTACAAAAATAAAAAAAATA [XGTACX_site8226] | 11 ± 0.54
55 | TCAAAGTAAAACAGGACATGCACAGAACATCCTGCC [TGCATGCA_site2] | 10.1 ± 0.24
56 | GTATTTATGTGTTTGGTGCAAGGGAGAATTTTTTTT | 10.3 ± 0.33
57 | TTTATTATGTAAGCATGTACATGATGTATATATTTA [XGTACX_site5021] | 10.9 ± 0.54
58 | ATATATATATATATATGTACATATATTTGTAATGTC [XGTACX_site8074] | 11.3 ± 0.51
59 | TTGTTTGTAAACAGATGTACATATAAAAATATATAT [XGTACX_site3370] | 11.3 ± 0.91
60 | TATATTAGAAAGGATACACACATATATAAATATCTA [CACACA_site6411] | 9.935 ± 0.007
61 | ATCTGTACAGTTTTTGCACACATATAAATAAAAAAA [CACACA_site9198] | 11.3 ± 1
62 | TATTTACAAATAAAAAGTACATAAACTAATATCTTT [XGTACX_site2181] | 11.3 ± 0.89
63 | ATATAAATAAATGTATGTACATATATTTATATGCAT [XGTACX_site4185] | 11.1 ± 0.62
64 | TAAATACTTATATGTACACACATATAGATATATATT [CACACA_site2553] | 11.4 ± 1
65 | CACAGACACGGACACACACACACACCGATATATATA [CACACA_site4353] | 11.3 ± 0.79
66 | ATTTTTTAAAATATTTGTACATATATAATGCATATA [XGTACX_site7026] | 11 ± 0.64
67 | TTATCAAATGAGTGTTGTACGTCTTTTGAAATACCA [XGTACX_site8804] | 11.5 ± 1.1
68 | TTCCCTATATAGAGCATGCACTATATTCAAATGATG | 9.96 ± 0.014
69 | TTAGATATAAAAGCATGTACTTGTATAAAATATATA [XGTACX_site8272] | 11.1 ± 0.8

Row | Sequence | gcPBM binding intensity (ln)
70 | ATAAATATTAGCAGTTGTACAATAAATATATGTAAT [XGTACX_site2534] | 11.2 ± 0.64
71 | GAAAAATTGAATTTGGGTACATATAAATATTATATT [XGTACX_site2363] | 11.3 ± 0.76
72 | AAAATGTTTTTATCCAGTACATAAATATATATATAT [XGTACX_site7398] | 10.7 ± 0.35
73 | TATGAACACCCAAATACACACACTCAAAAAAAAAAA [CACACA_site5466] | 10.2 ± 0.48
74 | TAATTTTTCTTATATAGTACACAAAAAGAAAATTAC [XGTACX_site6393] | 11.3 ± 0.83
75 | TCAGATCCATAGAAGGTGCAAATAACAAAAATACAA [GTGCAC_site9610] | 10.2 ± 0.35
76 | AAGTAATTTATGCATACACACATATATAAATATGTA [CACACA_site7813] | 10 ± 0.13
77 | ATATATATAAAACACACACACACATGTTTTAAAACT [CACACA_site78] | 10.12 ± 0.078
78 | AAAAACTATTGTAGGACACACAAAATTCCAATTTTA [CACACA_site1701] | 11.2 ± 0.82
79 | ATATATATTAGGTATTGTACTTATATGCATATAAGT [XGTACX_site2700] | 11.3 ± 0.77
80 | AATGAATGAATTATTTTGCGCTTATTATAGGACGAA [XGTACX_negctrl_site218] | 10.1 ± 0.18
81 | TCTTTTATGTTTGTTTTTCCCTTTTTTTATGTTCCC [CACACA_negctrl_site1722] | 9.81
82 | AAATAAATGTTATGCATACACACTTTATACCTATTT [CACACA_site3779] | 10.07 ± 0.057
83 | CACAAAAAGAAACACACACACATATATATTTATTAT [CACACA_site3646] | 9.93 ± 0.099
84 | TATATATATATTTATACACACATTAGTGTATACATG [CACACA_site2950] | 10.3 ± 0.22
85 | GACTATTTTAATATTTTACACACCATGTAAAATATA [CACACA_site9050] | 10.05 ± 0.064
86 | ACATAATAAAAAAAACGTACAAATAGGTTTTTCATA [XGTACX_site6645] | 11.5 ± 0.95
87 | TGGGAATAAAAACACACACACACACCGATATATATA [CACACA_site5875] | 9.91 ± 0.16
88 | TATAATAAAAAATGTACACACATAAGAAAATTTAAT [CACACA_site2901] | 11.3 ± 0.71
89 | TTTTTTTATTATTAAAGTACTAAAAAATGAAAACTG [XGTACX_site6758] | 11.1 ± 0.86

Source: the supplement of paper PMC11417369
